The supplement of paper PMC11417369
± gives the standard deviation of the averaged measurements. This is one part of the list.

These sequences were tested on PfAP2-I AP2 domain 3 (GST-tagged) (assay: gcPBM binding intensity (ln(normalized median fluorescence intensity)); higher = stronger DNA binding).
In short: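 DNA-binding domains from P. falciparum, fused to GST and produced in E. coli, were put on an Agilent 4 × 180k double-stranded probe array for 1 h in 1× PBS holding 1% milk, 0.2 mg/ml BSA, 0.5% salmon testes DNA and 0.03% Triton X-100. Probes were primer-extended, 36 bp long and drawn from intergenic genomic regions, with negative controls included. After Alexa488 anti-GST antibody detection and a 488 nm scan, binding intensity was set as the highest Masliner-normalised natural-log median intensity across replicate spots of either probe orientation.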

Row | Sequence | gcPBM binding intensity (ln)
1 | TTATTTATACGCTATGAGTTTGATACAAACAATTAA [XGTACX_negctrl_site456] | 7.78 ± 0.39
2 | TTTTTACGGAATTAGAGAAAAGAAATAAAAAAAAAA [XGTACX_negctrl_site436] | 7.89 ± 0.76
3 | TTTATATTTATGTAGGTGCATTTGTTTACAACATAT [GTGCAC_site9511] | 10.8 ± 0.71
4 | TAGTTATCACATTGCACACACATTTCCTTTTACATT [CACACA_site7589] | 9.03 ± 0.18
5 | TTTTTTGTTATTTTCCGTTTTTTTCCATTATAATTT [GTGCAC_negctrl_site461] | 8.19 ± 0.49
6 | TATTCAAAGAAAAACTGTACGTGTAGCCTACATCCT [XGTACX_site7707] | 8.62 ± 1.1
7 | ACGTTAAAAACAAGTTGTACACAATAAATTATTCTT [XGTACX_site6321] | 8.19 ± 0.16
8 | ATCTATTCACACTTTTAAAAATTAAATATATTATAT [TGCATGCA_negctrl_site610] | 8.35 ± 0.42
9 | TAATTTTTTTTTTATAGTACACATATTAAAGAATTA [XGTACX_site2485] | 7.87 ± 0.3
10 | AATAAAAAAAAAATATATATTTTTTTTTTTTTTTTT [CACACA_negctrl_site54] | 8.86 ± 0.47
11 | ATATATATAAACAAAAGTACATATATAAATTCATTT [XGTACX_site3482] | 8.31 ± 0.54
12 | TTAAAGTTACATTCGACACACACATAACAACTAAAT [CACACA_site9130] | 7.9 ± 0.51
13 | TCTTATATTATATTGTGTATTAAAATTTAACTTCAA [TGCATGCA_negctrl_site565] | 7.83 ± 0.58
14 | ATATATGTATATATGTACATGAATATATAAAGAAAA [CACACA_negctrl_site315] | 7.99 ± 0.58
15 | GTTTATATTTAATTTTTTTGTTTTTTTGTGTAATTC [XGTACX_negctrl_site194] | 7.55 ± 0.89
16 | TATTTATACTAATATGCATGTAATCGAAATACAGCT [TGCATGCA_site457] | 7.63 ± 0.49
17 | ACAAATAAATAAATATGTACTTAATTATATAATTGA [XGTACX_site5626] | 7.57 ± 0.37
18 | GACCATGTTAACAAAGCATGCATCTCTATATGTTTA [TGCATGCA_site358] | 7.74 ± 0.84
19 | TTATTTTATAAATCGAAAACAAACAAAAAAAAGATA [XGTACX_negctrl_site178] | 7.92 ± 0.52
20 | TTGCTGTATTTATTTTGTACACATTTGGCATTATAT [XGTACX_site3408] | 8.36 ± 0.54
21 | AAAAAAAAAAGAAAGAGTACTTTTTCAATACATATA [XGTACX_site2468] | 7.45 ± 0.29
22 | AAGAAAAACAATACGTGTACCAAGCATCCTACTAAC [XGTACX_site6628] | 7.86 ± 0.56

Row | Sequence | gcPBM binding intensity (ln)
23 | ACATAAAATAAATATACACACATATGTATATATCAT [CACACA_site7424] | 7.62 ± 0.47
24 | TTTGTAGCACTTAAGAGTACAAAATGTATAAGATTT [XGTACX_site2321] | 8.15 ± 0.13
25 | TTAATATAATTAAAATGTACTTATTTGTAAACATTA [XGTACX_site6313] | 7.43 ± 0.36
26 | GAGGATCATCAATTCACACACATAAAAATGAAGTTA [CACACA_site3078] | 7.42 ± 0.64
27 | CAACGATACAAAAAAGGTACACATATATATATATAT [XGTACX_site8688] | 9.32 ± 0.085
28 | TATATAAAATTCTATTGTACATGTTATACGAAAGAA [XGTACX_site5711] | 7.88 ± 0.32
29 | CAATTTTCTAATGAAACATGCAAAATAAAATTTTAT [TGCATGCA_site13] | 7.7 ± 0.82
30 | TTCTTTTTAATGTCGGTGCAACTCCATAAAAACAAA [GTGCAC_site9488] | 9.2 ± 0.22
31 | CAAATACATAGACACACACACATATACATATTTATA [CACACA_site7610] | 7.79 ± 0.49
32 | TTTATATTTAAATGCATGCACTTTCTATTTTTTTTT [GTGCAC_site9959] | 8.47 ± 0.54
33 | GAATAAAGGAGAGGCACACATATATATATATATATA [CACACA_site2452] | 9.34 ± 0.73
34 | TATTTGATAAATTATACACACACAATATATATAAAA [CACACA_site8625] | 7.69 ± 0.52
35 | AATAAAAAGAAACACACACACACACCCATATATATA [CACACA_site3589] | 8.29 ± 0.76
36 | AAAGATACTTTCCTCAAACACACAAAACTATACAAC [CACACA_site1475] | 8.12 ± 0.39
37 | TTATCACATTATTGCACACACATAAAGAAAAAAATA [CACACA_site2841] | 9.93 ± 0.41
38 | ATATAAGAACAAAATTGTACATAAATATTTATATAA [XGTACX_site7404] | 7.71 ± 0.37
39 | AAAAAAAAGGAAAATAAAAATAAAAAAAAATAATAA [XGTACX_negctrl_site601] | 7.33 ± 0.64
40 | TGAGAAAAAAAGAATTGTACATATAAAATATAACAA [XGTACX_site3500] | 7.49 ± 0.49
41 | TTTAAAAAAAAAAAAAAAAAAAAAAAAAAAAATTTG [CACACA_negctrl_site1235] | 7.26 ± 0.48
42 | AAAAAAATATATATATATATATATATATTATATATG [GTGCAC_negctrl_site654] | 7.89 ± 0.49
43 | TTTTATTATTTTTGTTGTACAGTATACTGTATGATT [XGTACX_site5359] | 8.05 ± 0.59
44 | TAATTATAGGTATACACACACATACATTTACATAAC [CACACA_site7509] | 7.97 ± 0.43
